Results are given in words; binding and its absence hold for the method and conditions named. Binding seen in cells or lysates may run through a third protein. Some entries that bind do so weakly or less than the wild type. Blank lines part the entries; values can stand above or below the substance they belong to.
What was measured:
[1] = molecular target: Myc-Fbw5 (UniProt Q969U6); experiment: co-IP; 293T cells co-transfected with the two tagged constructs, lysed in 1X cell lysis buffer (Cell Signaling); immunoprecipitation with anti-Myc, anti-HA or anti-Flag antibody overnight at 4°C, protein A/G beads, 5 washes; immunoblotting for the tags
[2] = molecular target: Myc-PLK1 (wild type) (UniProt P53350); experiment: as above
[3] = molecular target: Myc-Cdc20 (UniProt Q12834); experiment: as above
[4] = molecular target: Myc-Cdh1 (UniProt Q9UM11); experiment: as above
[5] = molecular target: Myc-Skp2 (UniProt Q13309); experiment: as above
[6] = molecular target: HA-Rap1GAP (S529A) (human) (UniProt P47736); experiment: as above
[7] = molecular target: HA-Rap1GAP (wild type) (human) (UniProt P47736); experiment: as above
[8] = molecular target: HA-Rap1GAP (S525/529A) (human) (UniProt P47736); experiment: as above
[9] = molecular target: Flag-Rap1GAP (wild type) (human) (UniProt P47736); experiment: as above
[10] = molecular target: endogenous Rap1GAP (human (endogenous in HeLa)) (UniProt P47736); experiment: co-IP; endogenous proteins; nocodazole-arrested HeLa cells (double thymidine block, release into nocodazole; MG132 for the last 4 h for β-TrCP); lysates incubated with protein A/G sepharose with control IgG or Rap1GAP antibody; immunoblotting

Amino acid sequences for entries named in this document (tags omitted). A change or cut given only in a name is not applied to a line headed by its entry. Chains listed by the source or under a name are the forms on record and can include a tag or linker.
UniProt Q969U6: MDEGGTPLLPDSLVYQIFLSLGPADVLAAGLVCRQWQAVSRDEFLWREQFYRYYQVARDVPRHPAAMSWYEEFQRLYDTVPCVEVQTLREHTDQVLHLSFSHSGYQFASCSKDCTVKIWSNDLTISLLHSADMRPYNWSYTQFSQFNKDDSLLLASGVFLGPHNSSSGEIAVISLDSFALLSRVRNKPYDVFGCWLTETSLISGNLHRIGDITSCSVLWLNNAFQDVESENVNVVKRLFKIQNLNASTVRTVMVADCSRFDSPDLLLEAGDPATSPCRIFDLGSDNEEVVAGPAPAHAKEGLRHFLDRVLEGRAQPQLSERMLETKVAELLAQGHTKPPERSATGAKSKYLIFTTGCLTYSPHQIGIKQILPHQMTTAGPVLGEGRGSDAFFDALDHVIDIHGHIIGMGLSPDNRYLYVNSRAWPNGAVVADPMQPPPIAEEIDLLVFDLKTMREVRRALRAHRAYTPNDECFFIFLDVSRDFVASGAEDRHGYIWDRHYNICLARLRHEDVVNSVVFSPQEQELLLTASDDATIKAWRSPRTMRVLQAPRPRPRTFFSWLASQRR
UniProt Q12834: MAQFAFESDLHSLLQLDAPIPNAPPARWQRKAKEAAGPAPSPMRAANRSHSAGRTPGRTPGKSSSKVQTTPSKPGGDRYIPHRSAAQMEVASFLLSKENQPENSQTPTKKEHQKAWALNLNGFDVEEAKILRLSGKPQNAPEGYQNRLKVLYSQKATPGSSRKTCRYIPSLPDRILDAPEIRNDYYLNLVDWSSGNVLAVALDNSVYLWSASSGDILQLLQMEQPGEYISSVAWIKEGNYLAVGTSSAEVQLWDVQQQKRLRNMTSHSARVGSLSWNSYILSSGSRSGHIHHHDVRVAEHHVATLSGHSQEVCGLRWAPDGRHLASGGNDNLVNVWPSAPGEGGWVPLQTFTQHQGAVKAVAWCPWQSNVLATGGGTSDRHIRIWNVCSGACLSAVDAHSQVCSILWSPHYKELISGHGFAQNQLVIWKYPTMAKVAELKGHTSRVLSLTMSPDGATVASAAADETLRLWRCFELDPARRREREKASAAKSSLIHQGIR
UniProt Q9UM11: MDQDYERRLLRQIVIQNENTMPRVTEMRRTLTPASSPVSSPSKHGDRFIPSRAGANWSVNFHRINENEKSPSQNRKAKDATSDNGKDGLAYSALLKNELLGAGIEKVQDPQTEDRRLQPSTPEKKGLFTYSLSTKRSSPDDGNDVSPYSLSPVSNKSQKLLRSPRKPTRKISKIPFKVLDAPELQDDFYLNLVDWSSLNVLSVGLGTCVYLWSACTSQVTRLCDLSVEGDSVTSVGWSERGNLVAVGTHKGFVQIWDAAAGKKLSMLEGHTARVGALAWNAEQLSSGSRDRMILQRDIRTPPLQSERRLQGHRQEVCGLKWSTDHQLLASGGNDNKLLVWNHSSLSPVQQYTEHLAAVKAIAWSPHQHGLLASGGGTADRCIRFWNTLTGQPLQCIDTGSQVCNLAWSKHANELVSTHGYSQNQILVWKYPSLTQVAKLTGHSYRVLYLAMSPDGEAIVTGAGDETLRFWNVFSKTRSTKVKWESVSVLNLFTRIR
UniProt Q13309: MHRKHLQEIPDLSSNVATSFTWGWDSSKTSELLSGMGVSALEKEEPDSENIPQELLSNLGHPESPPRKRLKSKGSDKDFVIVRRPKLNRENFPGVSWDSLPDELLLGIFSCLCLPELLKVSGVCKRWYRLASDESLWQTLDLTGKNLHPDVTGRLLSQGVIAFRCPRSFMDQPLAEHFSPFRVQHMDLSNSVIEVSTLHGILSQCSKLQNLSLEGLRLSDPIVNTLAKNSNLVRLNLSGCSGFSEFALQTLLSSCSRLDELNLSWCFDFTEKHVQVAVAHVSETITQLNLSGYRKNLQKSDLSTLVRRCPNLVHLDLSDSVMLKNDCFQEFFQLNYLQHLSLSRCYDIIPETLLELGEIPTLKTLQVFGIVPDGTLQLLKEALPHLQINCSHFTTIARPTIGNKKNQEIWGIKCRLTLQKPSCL
UniProt P47736: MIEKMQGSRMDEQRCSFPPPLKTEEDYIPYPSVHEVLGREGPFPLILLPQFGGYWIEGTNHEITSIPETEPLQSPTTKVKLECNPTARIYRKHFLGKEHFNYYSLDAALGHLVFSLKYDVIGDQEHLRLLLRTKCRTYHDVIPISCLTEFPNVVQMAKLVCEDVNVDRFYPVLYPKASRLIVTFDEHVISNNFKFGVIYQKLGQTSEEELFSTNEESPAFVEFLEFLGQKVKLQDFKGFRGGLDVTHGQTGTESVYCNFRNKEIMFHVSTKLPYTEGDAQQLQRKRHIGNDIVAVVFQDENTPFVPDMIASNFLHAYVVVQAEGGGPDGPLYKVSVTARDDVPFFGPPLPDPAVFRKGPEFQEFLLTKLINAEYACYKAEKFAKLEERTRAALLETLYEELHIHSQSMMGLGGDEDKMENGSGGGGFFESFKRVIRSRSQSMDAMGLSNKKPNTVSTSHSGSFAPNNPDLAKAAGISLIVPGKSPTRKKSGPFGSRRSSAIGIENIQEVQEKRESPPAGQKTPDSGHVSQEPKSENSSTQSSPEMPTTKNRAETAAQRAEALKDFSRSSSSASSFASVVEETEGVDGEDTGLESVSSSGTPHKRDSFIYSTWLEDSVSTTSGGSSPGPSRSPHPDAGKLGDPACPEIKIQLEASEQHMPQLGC
HA-Rap1GAP (S525/529A) (P47736, form named): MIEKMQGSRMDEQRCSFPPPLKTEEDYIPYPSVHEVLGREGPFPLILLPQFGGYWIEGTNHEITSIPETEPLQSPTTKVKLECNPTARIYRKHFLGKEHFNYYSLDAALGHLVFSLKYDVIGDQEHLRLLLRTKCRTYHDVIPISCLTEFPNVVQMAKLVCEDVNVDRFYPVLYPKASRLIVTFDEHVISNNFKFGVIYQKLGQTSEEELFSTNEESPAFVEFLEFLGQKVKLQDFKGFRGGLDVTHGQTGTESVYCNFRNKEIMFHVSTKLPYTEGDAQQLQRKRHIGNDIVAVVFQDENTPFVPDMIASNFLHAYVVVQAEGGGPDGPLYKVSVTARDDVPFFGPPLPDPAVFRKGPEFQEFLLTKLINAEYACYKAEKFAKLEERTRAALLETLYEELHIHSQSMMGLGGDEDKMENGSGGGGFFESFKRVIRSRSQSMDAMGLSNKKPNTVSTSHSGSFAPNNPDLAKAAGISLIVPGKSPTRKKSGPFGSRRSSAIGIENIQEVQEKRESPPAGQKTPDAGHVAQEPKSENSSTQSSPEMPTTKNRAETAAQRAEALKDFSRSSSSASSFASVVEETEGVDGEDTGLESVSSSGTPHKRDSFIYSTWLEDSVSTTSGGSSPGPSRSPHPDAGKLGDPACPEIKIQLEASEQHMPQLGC
UniProt Q9UKB1: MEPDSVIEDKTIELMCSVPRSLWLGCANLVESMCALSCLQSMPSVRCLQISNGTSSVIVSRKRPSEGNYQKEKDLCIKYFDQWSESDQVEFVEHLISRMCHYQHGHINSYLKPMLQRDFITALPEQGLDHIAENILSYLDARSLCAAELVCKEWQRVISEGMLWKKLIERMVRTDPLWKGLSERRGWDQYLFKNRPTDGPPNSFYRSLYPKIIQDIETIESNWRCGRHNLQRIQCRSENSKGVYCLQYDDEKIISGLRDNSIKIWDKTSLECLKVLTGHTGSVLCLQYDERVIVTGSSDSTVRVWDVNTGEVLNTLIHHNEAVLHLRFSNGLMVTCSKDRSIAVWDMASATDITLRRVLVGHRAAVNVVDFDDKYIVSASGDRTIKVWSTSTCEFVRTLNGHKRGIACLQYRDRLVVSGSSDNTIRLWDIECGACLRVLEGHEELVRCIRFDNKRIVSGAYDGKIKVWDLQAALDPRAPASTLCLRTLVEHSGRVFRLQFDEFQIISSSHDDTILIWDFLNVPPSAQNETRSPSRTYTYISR

- binding [1]: no binding
- binding [2]: binds
- binding [3]: no binding
- binding [4]: no binding
- binding [5]: no binding
Substance: Flag-Rap1GAP (wild type) (from UniProt P47736 1-663)

- binding [6]: no binding
- binding [7]: binds
- binding [8]: no binding
Substance: Flag-β-TrCP2 (from UniProt Q9UKB1 1-542)

- binding [2]: binds
Substance: HA-Rap1GAP (S525/529A) (from UniProt P47736 1-663)

- binding [2]: binds
Substance: HA-Rap1GAP (wild type) (from UniProt P47736 1-663)

- binding [9]: binds
Substance: Myc-PLK1 (wild type) (from UniProt P53350 1-603) (enzyme)

- binding [2]: no binding
Substance: Flag-Rap1GAP (S625A/P626A) (from UniProt P47736 1-663)

- binding [10]: binds
Substance: endogenous PLK1 (from UniProt P53350 1-603) (enzyme)

- binding [2]: binds
Substance: HA-Rap1GAP (S484A) (from UniProt P47736 1-663)

- binding [2]: binds
Substance: Flag-Rap1GAP (S542A/P543A) (from UniProt P47736 1-663)

Source: article PMC4201484
